# Where “and” joins values, the source holds several entries; their conditions need not be identical. Identical values can stand only once. Inconclusive means that the source gave no clear call. Such entries were picked first, then a sample of the others. For part of these data: Potencies of inconclusive entries are doubtful fits and often do not repeat. Calls of active or inactive are those of the source. Calls follow the shape of the dose curve; as a rule, active = well fitted curve in the direction sought with a large enough effect in the repeat runs; inconclusive = weak or mixed curves; inactive = no such curve, though single readings can be large; an effect the other way counts as inactive or inconclusive.
# Key:
# [1] = A CellTox Green Cytotoxicity Assay to monitor cytotoxicity in HEK293 cells - 32 hour (AID 1224881); also: nearly all actives have a fitted effect of over 40% in size
# In short: (§1)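 Cells (HEK293, 600/well) and dye reagent are dispensed together. After 5 h at 37 C, 23 nL compound is pinned in. Plates stay at 37 C for 40 h with fluorescence read at 0h, 8h, 16h, 24h, 32h and 40h.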
# [2] = A CellTox Green Cytotoxicity Assay to monitor cytotoxicity in HepG2 cells - 0 hour (AID 1224882); also: nearly all actives have a fitted effect of over 35% in size
# In short: (§2)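 Cells and non-lytic dye reagent are dispensed together (600 HepG2 cells/well) and incubated 5 h before DMSO compound transfer. Kinetic fluorescence is then recorded in the same wells during 40 h at 37 C.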
# [3] = A CellTox Green Cytotoxicity Assay to monitor cytotoxicity in HEK293 cells - 8 hour (AID 1224884); also: nearly all actives have a fitted effect of over 35% in size
# In short: as §1
# [4] = A CellTox Green Cytotoxicity Assay to monitor cytotoxicity in HEK293 cells - 16 hour (AID 1224888); also: nearly all actives have a fitted effect of over 35% in size
# In short: as §1
# [5] = A CellTox Green Cytotoxicity Assay to monitor cytotoxicity in HepG2 cells - 32 hour (AID 1224883); also: nearly all actives have a fitted effect of over 50% in size
# In short: as §2
# [6] = qHTS RealTime-Glo MT Cell Viability Assay in HEK293 cells - 24 hour (AID 1224886); also: nearly all actives have a fitted effect of over 50% in size
# In short: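 Homogeneous bioluminescent viability format in HEK293 cells (600 cells/well). Following 5 h at 37 C/5% CO2, 23 nL compound was pintooled; the signal was measured repeatedly during 40 h incubation.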
# [7] = qHTS RealTime-Glo MT Cell Viability Assay in HepG2 cells - 16 hour (AID 1224885); also: nearly all actives have a fitted effect of over 50% in size
# In short: (§3)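 Cell number in HepG2 cultures estimated from NanoLuc luminescence generated by metabolic reduction of a prosubstrate by living cells. The homogeneous, nonlytic format allowed repeated reads at 0, 8, 16, 24, 32 and 40 h of compound exposure.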
# [8] = qHTS RealTime-Glo MT Cell Viability Assay in HEK293 cells - 8 hour (AID 1224887); also: nearly all actives have a fitted effect of over 50% in size
# In short: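 Real-time viability in HEK293: signal arises when living cells convert a prosubstrate for NanoLuc in the medium, so luminescence tracks viable cell number. Compound (23 nL, DMSO) added 5 h post-seeding; kinetic reads at 0–40 h, 37 C.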
# [9] = qHTS RealTime-Glo MT Cell Viability Assay in HepG2 cells - 0 hour (AID 1224889); also: nearly all actives have a fitted effect of over 50% in size
# In short: as §3
# Potency is read from the fitted curve at half-maximal effect; tags tell the direction and shape of the fitted curve.
smiles,measurement,setting,value
c1ccc(Cc2ccccc2)cc1,Potency,[1],"inconclusive: 34.7 µM [activator, partial curve, poor fit]"
CCCCCCCCCOC(=O)CCCCC(=O)OCCCCCCC,Potency,[1],active: 24.5 µM
same,Potency,[2],active: 27.5 µM
same,Potency,[3],active: 38.9 µM
same,Potency,[4],active: 27.5 µM
O=C(O)c1ccc(C(=O)O)cc1,Potency,[1],inactive
same,Potency,[5],"inconclusive: 21.9 µM [activator, partial curve]"
ClC(Cl)(Cl)c1ccc(C(Cl)(Cl)Cl)cc1,Potency,[1],"inconclusive: 30.6 µM [activator, partial curve, poor fit]"
Cc1cccc(Nc2cc(Cl)nc(SCC(=O)O)n2)c1C,Potency,[1],inactive
same,Potency,[6],inactive
O=C(c1ccc(O)c(O)c1)c1ccc(O)cc1O,Potency,[1],"inconclusive: 21.8 µM [activator, single point]"
same,Potency,[6],"inconclusive: 43.6 µM [cytotoxic, partial curve]"
same,Potency,[4],"inconclusive: 21.8 µM [activator, single point]"
CN(C)c1ccc(C(c2ccccc2)c2ccc(N(C)C)cc2)cc1,Potency,[1],"inconclusive: 0.195 µM [activator, single point]"
same,Potency,[7],"inconclusive: 38.9 µM [cytotoxic, partial curve, poor fit]"
same,Potency,[6],"inconclusive: 19.5 µM [cytotoxic, partial curve]"
CCC(=O)OC/C=C/c1ccccc1,Potency,[1],"inconclusive: 43.6 µM [activator, single point]"
same,Potency,[8],inactive
O=CC=C(c1ccccc1)c1ccccc1,Potency,[1],"inconclusive: 55.4 µM [activator, single point]"
same,Potency,[8],"inconclusive: 19.7 µM [cytotoxic, full curve]"
CCCCCCc1ccc(N)cc1,Potency,[1],inactive
same,Potency,[8],"inconclusive: 17.4 µM [cytotoxic, partial curve]"
COc1cc2c(c(OC)c1OC)-c1ccc(OC)c(=O)cc1[C@@H](NC(C)=O)CC2,Potency,[1],"inconclusive: 30.5 µM [activator, partial curve, poor fit]"
same,Potency,[6],"inconclusive: 27.2 nM [cytotoxic, full curve, poor fit] and inconclusive: 15.5 nM [cytotoxic, full curve]"
CC(=O)OC(OC(C)=O)c1ccc([N+](=O)[O-])o1,Potency,[1],"inconclusive: 62.7 µM [activator, single point]"
same,Potency,[7],"inconclusive: 55.9 µM [cytotoxic, single point]"
same,Potency,[4],"inconclusive: 62.7 µM [activator, single point]"
CC(=O)c1c(C)cc(C(C)(C)C)cc1C,Potency,[1],active: 24.5 µM
same,Potency,[6],"inconclusive: 27.5 µM [cytotoxic, partial curve]"
same,Potency,[8],"inconclusive: 27.5 µM [cytotoxic, partial curve]"
C[C@]12CC[C@H]3[C@@H](CCC4=CC(=O)CC[C@@]43C)[C@@H]1CC[C@@H]2C(=O)CO,Potency,[1],"inconclusive: 54.9 µM [activator, single point]"
same,Potency,[6],"inconclusive: 19 µM [cytotoxic, partial curve, poor fit]"
same,Potency,[8],"inconclusive: 24.5 µM [cytotoxic, partial curve, poor fit]"
same,Potency,[9],active: 4.36 µM and active: 9.52 µM
NC(CO)(CO)CO,Potency,[1],"inconclusive: 21.9 µM [activator, single point]"
same,Potency,[3],"inconclusive: 21.9 µM [activator, single point]"
same,Potency,[4],"inconclusive: 21.9 µM [activator, single point]"
CCCCC(CC)CN1C(=O)C2C3C=CC(C3)C2C1=O (stereo not drawn),Potency,[1],active: 30.9 µM
same,Potency,[6],"inconclusive: 21.9 µM [cytotoxic, partial curve]"
same,Potency,[8],"inconclusive: 17.4 µM [cytotoxic, full curve]"
CCN(CC)CCNC(=O)c1cc(S(C)(=O)=O)ccc1OC,Potency,[1],"inconclusive: 10.7 µM [activator, single point]"
same,Potency,[3],"inconclusive: 9.52 µM [activator, single point]"
same,Potency,[4],"inconclusive: 9.52 µM [activator, single point]"
O=C(O)c1ccccc1Nc1cccc(C(F)(F)F)c1,Potency,[1],inactive
same,Potency,[6],inactive
C=CC(C)(CCC=C(C)C)OC(=O)c1ccccc1 (stereo not drawn),Potency,[1],"inconclusive: 54.9 µM [activator, single point]"
same,Potency,[3],"inconclusive: 54.9 µM [activator, single point]"
same,Potency,[4],"inconclusive: 54.9 µM [activator, single point]"
